{"source": "PubChem BioAssay AID1508642", "about": "(National Center for Advancing Translational Sciences (NCATS), 2021)", "note": "Out of some 43,000 compounds screened, about 200 (0.47%) were called active. Inconclusive results (about 12%) are left out. Calls come from the whole dose curve; as a rule, active = well fitted cell-killing curve with a large enough effect; inconclusive = small, poorly fitted or top-dose-only effect, or effect the other way; inactive = flat fitted curve, though single readings scatter. The list shows a part of the results. % is set by controls: 0 for no effect and ±100 for the full control effect; potency is the fitted concentration of half-maximal effect.", "data": [{"assay": "Cell viability qHTS assay in S16 Pmp22-F2sN cells; note: nearly all actives have a fitted effect of over 65% in size", "settings": "S16 Pmp22-F2sN Schwann cells (luciferase reporters placed in the Pmp22 gene) viability, CellTiter-Glo, 24 h; series mostly up to 57.5 µM; activity change, negative = cytotoxicity: at the top concentration", "outline": "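CellTiter-Glo counter-screen, qHTS, 1536-well. Cells: S16(c9) Pmp22-F2sN, 500-1,000/well in DMEM + 10% FBS. Cpd 23 nL pin transfer, 24 h, 37C/5% CO2. Read: luminescence, CCD imager.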", "values": [{"smiles": "CCn1c(CNC(=O)c2ccc(OC)cc2)nnc1SCC(=O)Nc1ccccc1", "activity change, negative = cytotoxicity": "inactive: -0.765%"}, {"smiles": "COc1ccc(-n2c(C)c(C(C)=O)c3cc(OC(=O)c4ccc(C)cc4)ccc32)cc1", "activity change, negative = cytotoxicity": "inactive: -4.12%"}, {"smiles": "CCOC(=O)c1ccc(OCC2c3cc(OC)c(OC)cc3CCN2C(=O)c2ccc(S(=O)(=O)N3CCCC3)cc2)cc1", "note": "(stereo not given)", "activity change, negative = cytotoxicity": "inactive: 1.5%"}, {"smiles": "CCC1=Nc2cc(C(=O)NCC(C)c3ccccc3)ccc2Sc2ccc(C)cc21", "note": "(stereo not given)", "activity change, negative = cytotoxicity": "inactive: -22.5%"}, {"smiles": "Cc1ccc(CCNC(=O)c2cn(C)c3ccc(S(=O)(=O)N(C)C4CCCCC4)cc3c2=O)cc1", "activity change, negative = cytotoxicity": "inactive: 9.78%"}, {"smiles": "CCN1CCN(c2ncnc3c2cnn3-c2ccc(C)c(Cl)c2)CC1", "activity change, negative = cytotoxicity": "inactive: 1.23%"}, {"smiles": "COc1ccc(-c2noc(-c3ccc(N4CCCC4)c([N+](=O)[O-])c3)n2)cc1", "activity change, negative = cytotoxicity": "inactive: -6.39%"}, {"smiles": "O=C(NCc1ccc2c(c1)CCN2C(=O)c1ccccc1)Nc1cc(F)ccc1F", "activity change, negative = cytotoxicity": "inactive: -25.6%"}, {"smiles": "CCOC(=O)Cc1ccc(NC(=O)Nc2ccccc2OCc2cc(=O)n3ccccc3n2)cc1", "activity change, negative = cytotoxicity": "inactive: -5.09%"}, {"smiles": "COc1ccccc1-n1c(=O)c2c3c(sc2n(C)c1=O)CN(C(C)=O)CC3", "activity change, negative = cytotoxicity": "inactive: 11.5%"}, {"smiles": "CCn1nnc2cc(C(=O)Nc3cccc(Cl)c3C)ccc21", "activity change, negative = cytotoxicity": "inactive: -10.3%"}, {"smiles": "COc1ccc(Cn2c(CNS(=O)(=O)c3ccc(C)c(C)c3)nc3cccnc32)cc1", "activity change, negative = cytotoxicity": "inactive: -4.34%"}, {"smiles": "CCOc1ccc(N(CC(=O)Nc2cc(C)ccc2C)S(=O)(=O)c2c(C)[nH]c(=O)[nH]c2=O)cc1", "activity change, negative = cytotoxicity": "inactive: 4.98%"}, {"smiles": "Cc1ccc(NC(=O)CCn2nc(C)c(S(=O)(=O)N3CCCCC3)c2C)cc1Cl", "activity change, negative = cytotoxicity": "inactive: 1.88%"}, {"smiles": "CCOC(=O)c1c(C)sc(-c2c(-c3cc(C)ccc3C)[nH]c3c2c(=O)n(C)c(=O)n3C)c1O", "activity change, negative = cytotoxicity": "inactive: 1.01%"}, {"smiles": "COc1ccc(NC(=O)N2CCc3c(sc4c3CCCC4)C2c2ccccc2OC)cc1", "note": "(stereo not given)", "activity change, negative = cytotoxicity": "inactive: -20.2%"}, {"smiles": "CC(C)CC(=O)Nc1ccc2nc(SCC(=O)N3CCCC3)sc2c1", "activity change, negative = cytotoxicity": "inactive: 26.3%"}, {"smiles": "Cc1ccc(C)c(CN2C(=O)c3ccccc3S(=O)(=O)c3ccc(C(=O)N4CCc5ccccc54)cc32)c1", "activity change, negative = cytotoxicity": "inactive: -0.511%"}, {"smiles": "Cc1ccc(OCC(=O)NCC(c2ccc(Cl)cc2)N2CCCCC2)cc1", "note": "(stereo not given)", "activity change, negative = cytotoxicity": "inactive: 4.75%"}, {"smiles": "CCCNC(=O)CSc1nc2ccccc2nc1Cc1ccc(Cl)cc1", "activity change, negative = cytotoxicity": "inactive: -6.54%"}, {"smiles": "CCN(c1ccc(C)cc1)S(=O)(=O)c1nnc(NC(=O)C2CCCCC2)s1", "activity change, negative = cytotoxicity": "inactive: -5.59%"}, {"smiles": "CSc1ccc(CCNC(=O)CCc2c(C)nc3c(c(C)nn3-c3ccc(C)c(C)c3)c2C)cc1", "activity change, negative = cytotoxicity": "inactive: 15%"}, {"smiles": "CCOC(=O)c1cccc(NC(=O)c2ccc3nc(C(C)C)oc3c2)c1", "activity change, negative = cytotoxicity": "inactive: 3.51%"}, {"smiles": "CSc1cccc(NC(=O)CC(c2cccs2)N2Cc3ccccc3C2=O)c1", "note": "(stereo not given)", "activity change, negative = cytotoxicity": "inactive: -1.07%"}, {"smiles": "COc1cc(-c2noc(CN3CCN(c4cccc(Cl)c4)CC3)n2)cc(OC)c1OC", "activity change, negative = cytotoxicity": "inactive: 7.51%"}, {"smiles": "CCOc1ccccc1NC(=O)N1CCN(C)c2ncccc21", "activity change, negative = cytotoxicity": "inactive: 1.94%"}, {"smiles": "Cc1ccc(NC(=O)CSc2n[nH]c(-c3ccc(F)cc3)n2)cc1F", "activity change, negative = cytotoxicity": "inactive: -0.217%"}, {"smiles": "COc1ccc(Cn2c(=O)n(-c3ccccc3C)c(=O)c3c4c(sc32)CN(C(C)=O)CC4)cc1", "activity change, negative = cytotoxicity": "inactive: 3.37%"}, {"smiles": "O=C(Nc1cccc(Cl)c1Cl)c1cc2nc(-c3ccc(Cl)cc3)cc(C(F)(F)F)n2n1", "activity change, negative = cytotoxicity": "inactive: 3.25%"}, {"smiles": "CCC(C(=O)Nc1nnc2n1CCS2)c1ccccc1", "note": "(stereo not given)", "activity change, negative = cytotoxicity": "inactive: 1.05%"}, {"smiles": "O=C(NCCc1nc2ccccc2n1Cc1ccccc1)c1ccco1", "activity change, negative = cytotoxicity": "inactive: 14.1%"}, {"smiles": "CCN(CC)CCNC(=O)C1CCN(c2cc(C)nc3c(-c4ccc(Cl)cc4)c(C)nn23)CC1", "activity change, negative = cytotoxicity": "inactive: -5.26%"}, {"smiles": "Cc1ccc(NS(=O)(=O)c2cnc(N)nc2)c(C)c1", "activity change, negative = cytotoxicity": "inactive: 1.1%"}, {"smiles": "CCN(CC)CCNC(=O)c1cc(-c2ccc(Br)s2)nc2ccccc12", "Potency": "active: 31.6 µM"}, {"smiles": "Cc1nc(-n2nc(C)c(Cc3ccc4c(c3)OCO4)c2C)sc1C(=O)Nc1cccc(Cl)c1", "activity change, negative = cytotoxicity": "inactive: 3.08%"}, {"smiles": "CCCCC(=O)OC1=C(C(C)=O)N(Cc2ccccc2)S(=O)(=O)c2ccccc21", "activity change, negative = cytotoxicity": "inactive: -0.444%"}, {"smiles": "O=C(Cn1nc(-c2ccccc2)nc(Cc2ccccc2)c1=O)Nc1ccccc1", "activity change, negative = cytotoxicity": "inactive: 1.29%"}, {"smiles": "Cc1cccc(C(=O)Nc2ccc(C(=O)OCc3cc(=O)n4nc(C5CC5)sc4n3)cc2)c1", "activity change, negative = cytotoxicity": "inactive: 1.32%"}, {"smiles": "COc1ccccc1N1CCN(C(=O)CCc2nnc3n(C)c(=O)c4sccc4n23)CC1", "activity change, negative = cytotoxicity": "inactive: 5.09%"}, {"smiles": "COc1ccc(S(=O)(=O)NCC(c2ccc(N(C)C)cc2)N2CCc3ccccc32)cc1", "note": "(stereo not given)", "activity change, negative = cytotoxicity": "inactive: -0.231%"}, {"smiles": "CCC(Sc1ncnc2sc3c(c12)CCCC3)C(=O)OC(C)C", "note": "(stereo not given)", "activity change, negative = cytotoxicity": "inactive: 6.46%"}, {"smiles": "CCCC(=O)N1CC(=O)Nc2ccc(Cl)cc2C1c1ccccc1", "note": "(stereo not given)", "activity change, negative = cytotoxicity": "inactive: 3.36%"}, {"smiles": "Cc1ccc(N2C(=O)NC(NS(=O)(=O)c3ccc(Cl)cc3)(C(F)(F)F)C2=O)cc1C", "note": "(stereo not given)", "activity change, negative = cytotoxicity": "inactive: 0.953%"}, {"smiles": "COc1ccc(S(=O)(=O)N2CCC(c3ccncc3)CC2)cc1OC", "activity change, negative = cytotoxicity": "inactive: -0.381%"}, {"smiles": "CCc1ccc(NC(=O)Cn2c(=O)n(Cc3nc(-c4ccccc4)no3)c(=O)c3cc4c(cc32)OCO4)cc1", "activity change, negative = cytotoxicity": "inactive: -4.37%"}, {"smiles": "CSc1ccc(CCNC(=O)Cn2ncc3c(=O)oc4ccccc4c32)cc1", "activity change, negative = cytotoxicity": "inactive: 14.4%"}, {"smiles": "CCOc1ccc(OCC)c(NC(=O)C2CCN(S(=O)(=O)c3cn(C)cn3)CC2)c1", "activity change, negative = cytotoxicity": "inactive: 14.8%"}, {"smiles": "COCCNC(=O)CSc1cn(CC(=O)N2CCCCCC2)c2ccccc12", "activity change, negative = cytotoxicity": "inactive: 1.66%"}, {"smiles": "CCc1ccc(NC(=O)CSC2=Nc3ccccc3C3=NC(CC(=O)NC4CCCCC4)C(=O)N23)cc1", "note": "(stereo not given)", "activity change, negative = cytotoxicity": "inactive: -16.9%"}, {"smiles": "Cc1ccc2c(=O)cc(C(=O)Nc3ccc(S(=O)(=O)Nc4nc(C)cc(C)n4)cc3)oc2c1", "activity change, negative = cytotoxicity": "inactive: -18.7%"}, {"smiles": "COc1ccc(NC(=O)C2CCCN(S(=O)(=O)c3ccc4c(c3)CCCC(=O)N4)C2)cc1OC", "note": "(stereo not given)", "activity change, negative = cytotoxicity": "inactive: -0.553%"}, {"smiles": "CCCCN(CCCC)CCNC(=O)c1cn(CC)c2ccc(S(=O)(=O)N3CCc4ccccc4C3)cc2c1=O", "activity change, negative = cytotoxicity": "inactive: -9.18%"}, {"smiles": "CCCN(CCC)CCNC(=O)CN1C(=O)COc2ccc(S(=O)(=O)N3CCC(C)CC3)cc21", "activity change, negative = cytotoxicity": "inactive: 11%"}, {"smiles": "Cc1ccc(-c2nc3ccccc3s2)cc1NC(=O)COc1ccccc1", "activity change, negative = cytotoxicity": "inactive: 15.6%"}, {"smiles": "CCOc1ccc(/C=C/c2nc(C#N)c(N3CCCCC3)o2)cc1", "activity change, negative = cytotoxicity": "inactive: -1.63%"}, {"smiles": "Cc1ccc(OCC(=O)NCC2(N3CCOCC3)CCCCC2)cc1C", "activity change, negative = cytotoxicity": "inactive: -24.1%"}, {"smiles": "O=C(CN(CCc1ccccc1)S(=O)(=O)c1ccc(Br)cc1)NCc1ccc(Cl)cc1", "activity change, negative = cytotoxicity": "inactive: -14.1%"}, {"smiles": "COc1ccc(N(Cc2cccs2)C(=O)c2ccc(Br)o2)cc1", "activity change, negative = cytotoxicity": "inactive: -5.7%"}, {"smiles": "CCC1CN(C(=O)C2CCN(S(=O)(=O)c3c(C)noc3/C=C/c3ccccc3F)CC2)c2cc(Cl)ccc2O1", "note": "(stereo not given)", "activity change, negative = cytotoxicity": "inactive: 3.37%"}, {"smiles": "CCOC(=O)Cn1nc(-c2ccccc2)c2cnc3ccc(OCC)cc3c21", "activity change, negative = cytotoxicity": "inactive: 19.7%"}]}]}
